Paper PMC4336329 (PLoS ONE, 2015)
In all, about 310,000 compounds went through this assay and about 14,000 (4.5%) showed an effect of 50% or more. Effects have a minus sign here. The list shows a part of the results.

Target: human ether-à-go-go-related gene (hERG) potassium channel (human, UniProt Q12809)
Assay: primary screen, population patch clamp on CHO cells stably expressing hERG
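Further: peak tail current of the secondary pulse compared with the same well before compound.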

Chain of human ether-à-go-go-related gene (hERG) potassium channel (Q12809 whole entry, looked up): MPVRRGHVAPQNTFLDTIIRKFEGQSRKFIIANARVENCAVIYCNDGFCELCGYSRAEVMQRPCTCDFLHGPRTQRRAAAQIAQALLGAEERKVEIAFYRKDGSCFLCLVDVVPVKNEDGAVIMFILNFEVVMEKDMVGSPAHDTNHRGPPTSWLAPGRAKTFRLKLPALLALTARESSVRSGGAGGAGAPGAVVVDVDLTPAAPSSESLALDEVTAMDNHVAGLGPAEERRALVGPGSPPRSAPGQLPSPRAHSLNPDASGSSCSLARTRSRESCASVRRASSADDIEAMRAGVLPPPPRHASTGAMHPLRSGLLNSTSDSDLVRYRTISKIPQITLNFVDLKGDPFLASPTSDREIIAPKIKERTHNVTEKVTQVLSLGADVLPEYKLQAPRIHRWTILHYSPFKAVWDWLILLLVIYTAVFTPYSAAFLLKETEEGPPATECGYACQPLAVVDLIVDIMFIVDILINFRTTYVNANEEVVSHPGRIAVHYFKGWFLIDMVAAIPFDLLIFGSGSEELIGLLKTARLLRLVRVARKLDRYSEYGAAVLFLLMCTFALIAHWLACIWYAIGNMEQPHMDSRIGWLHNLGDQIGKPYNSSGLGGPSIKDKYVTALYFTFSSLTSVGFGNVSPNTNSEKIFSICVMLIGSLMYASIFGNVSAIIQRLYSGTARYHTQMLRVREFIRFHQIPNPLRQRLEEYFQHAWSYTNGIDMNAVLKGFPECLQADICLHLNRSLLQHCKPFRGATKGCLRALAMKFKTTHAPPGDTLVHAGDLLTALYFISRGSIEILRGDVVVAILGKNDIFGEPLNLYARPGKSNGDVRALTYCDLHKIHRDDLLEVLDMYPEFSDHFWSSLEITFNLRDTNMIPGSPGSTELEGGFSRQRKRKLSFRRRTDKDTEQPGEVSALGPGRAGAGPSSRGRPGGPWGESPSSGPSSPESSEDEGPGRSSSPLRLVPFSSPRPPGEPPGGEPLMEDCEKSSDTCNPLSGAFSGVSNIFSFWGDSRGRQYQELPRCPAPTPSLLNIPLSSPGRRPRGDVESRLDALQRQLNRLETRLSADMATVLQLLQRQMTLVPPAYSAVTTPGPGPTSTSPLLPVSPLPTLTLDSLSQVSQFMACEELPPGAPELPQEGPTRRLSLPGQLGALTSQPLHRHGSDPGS

Row | SMILES | hERG current change (%, negative = inhibition) at 10uM
1 | CCOc1ccccc1NC(=O)c1oc2ccccc2c1NC(=O)C1CCCO1 (centres unmarked) | -4.46%
2 | O=C(CSc1nccn1-c1ncc(C(F)(F)F)cc1Cl)c1ccc(Br)cc1 | -14.2%
3 | COc1ccc(NC(=O)c2cccc(-n3cnnn3)c2)cc1 | -6.53%
4 | COc1ccc(-c2nnc3ccc(SCC(N)=O)nn23)cc1OC | 3.19%
5 | Cc1cc(C)nc(SCc2nnc(SCC(=O)Nc3nc(-c4ccccc4)cs3)n2C)n1 | -45.4%
6 | COc1ccc2oc(-c3ccc(NC(=O)c4ccc(N5CCOCC5)c([N+](=O)[O-])c4)cc3)nc2c1 | 17.3%
7 | O=C(CCc1c[nH]c2ccccc12)NCc1ccncc1 | 6.68%
8 | COCCNC(=O)N1[C@H]2CC[C@@H]1C(C(=O)OC)=C(c1ccc(OC)c(OC)c1)C2 | 12.4%
9 | C(=C\c1ccccc1)/C=N/Nc1nc2ccccc2[nH]1 | -6.25%
10 | COC(=O)[C@@H]1C[C@@]2(O)[C@H](O)[C@H](O)[C@H](O)C[C@H]2N1C/C=C/c1ccccc1 | -4.17%
11 | COc1ccc2c3c(c(=O)oc2c1OCC(=O)O)CCCC3 | 20.8%
12 | COc1ccc(Cl)cc1NC(=O)CCNC(=O)OCc1ccccc1 | -12.1%
13 | Cc1ccc2c(c1)N(C(=O)CCC(=O)N1CCOCC1)CC(C)O2 (centres unmarked) | 14.3%
14 | Cc1ccc(S(=O)(=O)NCC(=O)NCC(=O)OC(C(=O)NC(N)=O)C(C)C)cc1C (centres unmarked) | 8.86%
15 | CCN(CC)C(=O)c1ccc2c3c(cccc13)C(=O)N(CCc1ccc(OC)c(OC)c1)C2=O | -25.6%
16 | CCOC(=O)CSc1nc2ccc(NC(=O)CSc3nnnn3Cc3ccccc3)cc2s1 | 18.6%
17 | Cc1ccc(OCc2nnc(N)s2)cc1 | 14.7%
18 | O=C(CCNC(=O)c1ccccc1)N/N=C/c1ccc([N+](=O)[O-])cc1 | -24.9%
19 | COc1cc(OC)cc(C(=O)NCCCn2ccnc2)c1 | 12.5%

Row | SMILES | hERG current change (%, negative = inhibition) at 10uM
20 | COc1cc(CN2C(=O)C(NC(=O)c3ccco3)(C(F)(F)F)C3=C2CC(C)(C)CC3=O)cc(OC)c1 (centres unmarked) | -15.3%
21 | COc1cc(C(=O)NCCC(c2ccccc2)c2ccccc2)cc(OC)c1OC | 0.15%
22 | O=S(=O)(c1cccs1)N1CN(C2CCCC2)c2nc3ccccc3nc21 | -4.37%
23 | CC(=O)/C(C(=N)N1CCN(c2cccc(Cl)c2)CC1)=C(\C)O | 5.85%
24 | O=C(COC(=O)c1cc[n+]([O-])cc1)Nc1ccc(Cl)cc1C(F)(F)F | 24.9%
25 | Cc1cccc(NC(=O)C2NC(=O)CC2c2ccccc2)c1C (centres unmarked) | 1.2%
26 | CC(NC(=O)C1CCCN1S(=O)(=O)c1ccc2c(c1)n(C)c(=O)c(=O)n2C)c1ccccc1 (centres unmarked) | 10.1%
27 | CCOC(=O)C1(Cc2ccccc2)CCN(Cc2csc(C(C)=O)c2)CC1 | -24.2%
28 | O=C(NCC1CCCO1)c1ccc(COc2ccccc2)o1 (centres unmarked) | -14.4%
29 | COc1ccc(C2NC(=O)NC(C)=C2C(=O)OC2CCCC(C)C2)cc1 (centres unmarked) | 3.88%
30 | O=C(NCCOc1ccccc1)C1CCCN1C(=O)c1cccs1 (centres unmarked) | 7.76%
31 | Cc1ccc(NC(=O)CN2CCOCC2)cc1C | 14.3%
32 | CSc1nc2ccc(N3C(=O)C4CCCCC4C3=O)cc2s1 (centres unmarked) | -1.66%
33 | CON/C=C(\C=Nc1ccccc1)c1ncc(C(F)(F)F)cc1Cl | 5.75%
34 | COc1ccc(F)c(CN2CCN(CCc3ccccc3)C(CCO)C2)c1 (centres unmarked) | -55.9%
35 | CCC(C)N(C(=O)c1csnn1)C(C(=O)NCc1ccc(F)cc1)c1ccco1 (centres unmarked) | -16.8%
36 | CCC(C)NC(=O)c1ccccc1NC(=O)CN(c1cc(C)ccc1OC)S(C)(=O)=O (centres unmarked) | 0.336%
37 | C/C(=N\NC(=O)COc1ccc(C)cc1C(C)C)c1ccc(-n2ccnc2)cc1 | -33.4%
38 | CCOc1ccc(NC(=O)c2ccccc2CO)cc1 | 16.2%

Row | SMILES | hERG current change (%, negative = inhibition) at 10uM
39 | CS(=O)(=O)NCc1csc(-c2ccccc2)n1 | 10.4%
40 | COc1ccc(CCN=C(C)C2=C(O)C(c3ccccc3)OC2=O)cc1OC (centres unmarked) | -20%
41 | NC(=O)CSc1nnc(CNc2ccc(F)cc2)n1CC1CCCO1 (centres unmarked) | -1.77%
42 | CC(C)N(C#N)c1nc(N2CCOCC2)nc(N2CCOCC2)n1 | -14%
43 | Clc1cccc(N2CCNCC2)n1 | 12.9%
44 | COc1ccc(Nc2nc(N)nc(CSC(=S)N3CCN(c4ccccc4)CC3)n2)cc1 | 14.1%
45 | COCCN(CCOC)S(=O)(=O)c1ccc(C(=O)Nc2nc(C)c(C(C)=O)s2)cc1 | 13%
46 | CCOC(=O)Cc1csc(SCC(=O)Nc2cccc(Cl)c2)n1 | 8.11%
47 | Cc1cc(N2CCOCC2)ccc1/C=C1\NC(=O)N(CC(=O)Nc2ccc(F)cc2)C1=O | -3.6%
48 | CCCCn1c(/N=C/c2c[nH]c3ccccc23)nc2ccccc21 | -3.26%
49 | CC1(C)CC(=O)C2=C(C1)Nc1ccccc1NC2c1cccc(F)c1 (centres unmarked) | 6.89%
50 | O=C(c1ccc(NC2=NC3CS(=O)(=O)CC3S2)cc1)N1CCN(Cc2ccccc2)CC1 (centres unmarked) | -33.1%
51 | CNC(=O)C(=O)Nc1cc2c3c(c1)CCN3C(=O)CC2 | 28.8%
52 | NC(=O)C1CCN(c2cc(Cl)nc(N)n2)CC1 | 7.72%
53 | CCOC(=O)N1CCN(c2c(NCCCN3CCCC(C)C3)c(=O)c2=O)CC1 (centres unmarked) | -8.23%
54 | CCOc1ccc(CCNC(=O)CCCn2nc(C)c3c(C)n(-c4ccccc4)nc3c2=O)cc1 | -10.5%
55 | CCCC(=O)NC(=S)Nc1ccccc1F | 17%
56 | Cc1ccc(SCCC(=O)Nc2c(C)n(C)n(-c3ccccc3)c2=O)cc1 | 4.3%
